The campaign covered roughly 310,000 compounds. About 2,200 (0.71%) showed an effect of 50% or more. The effect is printed as a negative number. This is one part of the list.
molecular target: human ether-à-go-go-related gene (hERG) potassium channel (human, UniProt Q12809); assay: primary screen, population patch clamp on CHO cells stably expressing hERG
Sequence (Q12809 whole entry, looked up): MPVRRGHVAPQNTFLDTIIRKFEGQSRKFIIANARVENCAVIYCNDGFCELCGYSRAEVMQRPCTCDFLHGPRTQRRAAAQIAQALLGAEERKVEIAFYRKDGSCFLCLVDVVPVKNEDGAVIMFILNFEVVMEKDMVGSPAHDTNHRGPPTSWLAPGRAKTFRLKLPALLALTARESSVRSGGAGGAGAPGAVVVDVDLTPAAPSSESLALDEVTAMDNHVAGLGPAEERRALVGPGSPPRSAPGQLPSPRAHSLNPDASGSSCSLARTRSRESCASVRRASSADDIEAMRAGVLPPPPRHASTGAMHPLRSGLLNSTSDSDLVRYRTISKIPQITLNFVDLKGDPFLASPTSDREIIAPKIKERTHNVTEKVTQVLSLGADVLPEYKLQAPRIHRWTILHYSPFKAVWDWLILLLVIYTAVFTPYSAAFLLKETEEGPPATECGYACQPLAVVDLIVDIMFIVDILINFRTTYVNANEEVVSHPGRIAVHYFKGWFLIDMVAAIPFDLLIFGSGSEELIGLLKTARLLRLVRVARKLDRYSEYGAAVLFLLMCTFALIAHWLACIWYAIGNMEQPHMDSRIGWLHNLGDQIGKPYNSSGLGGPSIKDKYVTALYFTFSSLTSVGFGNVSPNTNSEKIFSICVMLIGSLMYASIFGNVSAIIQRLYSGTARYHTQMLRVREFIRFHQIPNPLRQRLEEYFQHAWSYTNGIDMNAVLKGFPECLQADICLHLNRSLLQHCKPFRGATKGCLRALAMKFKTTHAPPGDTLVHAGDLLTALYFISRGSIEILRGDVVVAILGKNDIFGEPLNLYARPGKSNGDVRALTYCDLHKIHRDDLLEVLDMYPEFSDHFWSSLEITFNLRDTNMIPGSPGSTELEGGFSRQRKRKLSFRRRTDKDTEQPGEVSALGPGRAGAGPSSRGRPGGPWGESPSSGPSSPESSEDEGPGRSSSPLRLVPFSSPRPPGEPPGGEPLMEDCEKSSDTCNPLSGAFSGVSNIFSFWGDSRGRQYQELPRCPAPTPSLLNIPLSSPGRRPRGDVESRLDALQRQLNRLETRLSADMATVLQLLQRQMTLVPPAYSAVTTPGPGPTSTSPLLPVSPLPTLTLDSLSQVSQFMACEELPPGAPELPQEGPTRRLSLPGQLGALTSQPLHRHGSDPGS

Row | SMILES | hERG current change (%, negative = inhibition) at 1uM
1 | N#Cc1ccc(OCC(=O)NCCc2ccccn2)cc1 | 11.3%
2 | COc1ccc(CCNc2cc(C)nc3c(-c4ccc(Cl)cc4)cnn23)cc1OC | 15.8%
3 | CC1CCCN(S(=O)(=O)c2ccc(NC(=O)CN3C(=O)NC(C)(c4ccccc4)C3=O)cc2)C1 (stereo not drawn) | 1.11%
4 | COC(=O)C(C)n1cnc2c(nnn2-c2ccc(F)cc2)c1=O (stereo not drawn) | 0.963%
5 | CC(C)C(C)NC(=O)CN1C(=O)NC2(CCCc3ccccc32)C1=O (stereo not drawn) | 7.28%
6 | COc1ccc(C2/C=C\CN(S(=O)(=O)c3cccs3)CC(=O)N2Cc2ccc(F)cc2)cc1 (stereo not drawn) | 10.8%
7 | COc1ccc(S(=O)(=O)NCc2ccco2)c2ccccc12 | 6.18%
8 | CCN(C(=O)CSc1nnc(C)n1Cc1ccccc1)C1CCS(=O)(=O)C1 (stereo not drawn) | 16.9%
9 | O=C(Nc1cccc([N+](=O)[O-])c1)c1ccccc1 | 8.72%
10 | O=C(CNS(=O)(=O)c1ccccc1)N/N=C/c1ccncc1 | 8.02%
11 | c1ccc(CCCCNCC2COc3ccccc3O2)cc1 (stereo not drawn) | -2.56%
12 | CCOC(=O)c1cc(CC)sc1NC(=O)COC(=O)c1cnccn1 | 11.1%
13 | C=CCn1c(SCC(=O)Nc2ccccc2F)nc2ccccc2c1=O | 6.7%
14 | COc1cccc(CNC(=O)c2cc(S(=O)(=O)N3CCCC3)cn2C)c1 | 8.8%
15 | COc1ccccc1N1CCN(C(=O)c2ccc3c(c2)CCN3S(C)(=O)=O)CC1 | 10.9%
16 | Cc1ccc(C(=O)n2c(N)nc3ccccc32)cc1 | 12.8%
17 | Cc1ccc(NC(=O)CC(N)=S)cc1 | 10.5%
18 | COc1ccc(C)cc1NC(=O)CNC(c1ccccc1)c1ccccc1 | 2.07%
19 | COc1ccc(OCc2cc(C(=O)N3CCCCCCC3)no2)c(Cl)c1 | -7.85%
20 | Cc1ccc(NC(=S)N2CCCC(c3nc4ccccc4[nH]3)C2)cc1 (stereo not drawn) | -2.16%
21 | O=c1ccc2ccc(OCCOc3cccc(Cl)c3)cc2o1 | 9.4%
22 | CCC(=O)Nc1nnc(SCC(=O)NCCc2ccc(OC)c(OC)c2)s1 | 23.5%
23 | CCCc1[nH]n(-c2nc3ccccc3s2)c(=O)c1C=NCCN1CCOCC1 | -4.58%

Row | SMILES | hERG current change (%, negative = inhibition) at 1uM
24 | CCN(CC)C(NC(=O)Cc1ccccc1)C(Cl)(Cl)Cl (stereo not drawn) | 1.13%
25 | Cc1cc(N2CCN(C3CCCC3)CC2)n2c(nc3ccccc32)c1C#N | -4.07%
26 | COc1ccc(-c2[nH]ncc2CNCCc2ncccc2C)cc1F | -5.25%
27 | COc1ccc(-n2c(Cc3cccn3C)nnc2SCC(=O)N2CCC(C)CC2)cc1 | 5.72%
28 | CCC(=O)Nc1ccc2c(c1)nc(CCN1CCN(c3ccccc3)CC1)n2C | 0.124%
29 | Cc1ncc([N+](=O)[O-])n1Cc1ccc(F)cc1 | 5.41%
30 | CCOC(=O)CCSc1nc(C)c2cc(C)c(C)cc2n1 | 3.18%
31 | COc1ccc(-n2c(SCC(=O)Nc3cc(C)on3)nc3c(c2=O)SCC3)cc1OC | 12.1%
32 | O=C(Nc1ccc2c(c1)CCC2)c1ccccc1F | 6.84%
33 | COC(=O)c1sc2ncccc2c1OCc1ccc(Cl)cc1 | 5.16%
34 | Cc1[nH]c2ccc(F)cc2c1CCN(Cc1ccncc1)C(=S)Nc1ccc(F)cc1 | -1.08%
35 | N/C(=N\OC(=O)COc1ccc(Br)cc1Cl)c1ccncc1 | 6.43%
36 | CCCCCN1C/C=C\C(c2ccc(OC)cc2)N(Cc2ccc(F)cc2)C(=O)C1 (stereo not drawn) | 13.8%
37 | O=C(N=C1c2ccccc2CN1c1ccccc1)c1cccc([N+](=O)[O-])c1 | 5.48%
38 | Cc1nn(-c2ccc(F)cc2)c2c1cc(C#N)c1nc3ccccc3n12 | 10.6%
39 | O=C(c1ccc([N+](=O)[O-])c(CS(=O)(=O)c2ccc(Cl)cc2)c1)N1CCCCC1 | -7.51%
40 | CCOC(=O)N1CCN(C2CCCN(C(=O)c3cccc(N(C)C)c3)C2)CC1 (stereo not drawn) | 13.8%
41 | O=S(=O)(NCC1CC1)c1cc(Cl)cc(Cl)c1 | 8.53%
42 | O=C(NCc1cn(-c2ccccc2)nc1-c1ccc(F)cc1)c1cccc([N+](=O)[O-])c1 | 11.2%
43 | O=C(CCc1ccccc1)Nc1nnc(-c2cccs2)o1 | 24.8%
44 | Cc1ccc(NC(=O)c2nc3nccc(C)n3n2)c(C)c1 | 5.84%
45 | CCCc1sc(N/N=C/c2ccccn2)nc1-c1ccc(F)cc1 | 8.58%
46 | Cc1ccc(Cc2nnc3n(-c4ccccc4)nc(C(=O)c4ccccc4)n3c2=O)cc1 | -2.26%

Row | SMILES | hERG current change (%, negative = inhibition) at 1uM
47 | CCOC(=O)C(=CNc1ccc(S(N)(=O)=O)cc1)C(=O)OCC | 7.96%
48 | CC(C)n1c(SCC(=O)Nc2ccccc2)nc2c1c(=O)[nH]c(=O)n2C | 9.97%
49 | N#CC(Cc1ccc(OC(F)F)cc1)c1nc2ccccc2[nH]1 (stereo not drawn) | -4.91%
50 | CCc1cccc(NC(=O)NC(=O)Cn2nnc(C(=O)OC)c2C(=O)OC)c1 | 13.5%
51 | CC(C)CCNC(=O)NC(=O)COc1ccccc1C#N | 13%
52 | O=C(N/N=C/c1ccc([N+](=O)[O-])cc1)c1cnccn1 | 13.1%
53 | O=C(Nc1sc2c(c1CN1CCOCC1)CCC2)c1ccc(F)cc1 | -6.12%
54 | Cc1cnc(C(=O)Nc2cccc(S(=O)(=O)N(C)C)c2)cn1 | 12.6%
55 | CCn1c(SCC(=O)Nc2ccc3c(c2)OCO3)nc2c(c1=O)SC(C)C2 (stereo not drawn) | 6.48%
56 | CC(NC(=O)C1CCCC1)C1CC2CCC1C2 (stereo not drawn) | 7.57%
57 | COc1ccc(-n2c(=S)[nH]c3cc(C(=O)NCc4ccccc4OC)ccc3c2=O)c(OC)c1 | 18.1%
58 | Cc1ccc(S(=O)(=O)N/N=C\c2ccc3c(c2)OCO3)c(C)c1 | 9.55%
59 | Cc1nnc(NC(=O)CSc2nccn2Cc2ccccc2)s1 | 2.11%
60 | Cc1cc(C)n2cc(CSc3ncn[nH]3)nc2n1 | 1.42%
61 | COc1ccc(Cl)cc1N(CC(=O)N1CCC(C)CC1)S(C)(=O)=O | 1.98%
62 | C=CCOCC(O)Cn1c(N2CCCC2)nc2c1c(=O)[nH]c(=O)n2C (stereo not drawn) | 13.8%
63 | O=C1CC(c2ccccc2)CC(O)=C1C=NCc1ccccc1 (stereo not drawn) | 13.3%
64 | Cc1c(C(=O)NC(=S)Nc2ccccc2N2CCCC2)cccc1[N+](=O)[O-] | 5.43%
65 | CC(=O)Nc1ccc(NC(=O)[C@@H]2CCCN2S(=O)(=O)c2ccc3c(c2)OCCO3)cc1 | 11.8%
66 | CCc1nc(SCc2ccc(OC)cc2)n[nH]1 | 24.2%
67 | Cc1ccccc1NC(=S)N(CCN1CCOCC1)Cc1ccccc1F | 18.7%
68 | Cc1ccnc(NS(=O)(=O)c2ccc(N3C(=O)Nc4ccccc4N3O)cc2)c1 | 12.4%
69 | O=C(Oc1ccc(C(=S)N2CCCCC2)cc1)c1ccccc1 | 7.88%

Row | SMILES | hERG current change (%, negative = inhibition) at 1uM
70 | Cn1c(CNC(=O)CNC(=O)c2ccccc2F)cc(=O)n(C)c1=O | 25.2%
71 | CCn1c(SCC(=O)N/N=C/c2ccccc2OCC(=O)O)nnc1-c1ccccc1 | 6.93%
72 | COc1ccccc1NC(=O)N1CCN(c2ccccn2)CC1 | 9.96%
73 | Cn1c(=O)oc2ccc(C(=O)CSc3nnnn3-c3ccccc3)cc21 | 9.68%
74 | Cc1cc(Nc2ccccc2)cc(=O)n1C | 14.4%
75 | COc1cc(NC(=S)NCc2ccc(S(N)(=O)=O)cc2)cc(OC)c1 | 9.63%
76 | CCN(CC(=O)Nc1ccc(OC)cc1)C(=O)CSCc1ccc(C)cc1 | 4.28%
77 | CCOC(=O)c1cccc(NC(=O)c2cccs2)c1 | 3.48%
78 | Cc1ccc(OCCC(=O)OCC(=O)N2c3ccccc3CC2C)cc1 (stereo not drawn) | 16.5%
79 | Cc1ccc(C(=O)N(Cc2ccccc2)C(C)(C)C)cc1C | 8.61%
80 | O=C(Nc1ccccc1C(=O)NCc1cccnc1)c1ccc(Cl)cc1Cl | 7.71%
81 | O=c1cc(N2CCN(c3ccccc3Cl)CC2)[nH]c(=O)n1Cc1ccc(F)cc1 | -6.82%
82 | O=C(CCC1CCCCC1)NNC(=O)NC12CC3CC(CC(C3)C1)C2 | 14.2%
83 | CC(C)NC(=O)C(c1ccc(F)cc1)N(C(=O)CCC(=O)Nc1ccccn1)c1ccccc1F (stereo not drawn) | 10.9%
84 | Cc1ccccc1C(=O)NNC1CC(=O)N(c2ccc3c(c2)OCCO3)C1=O (stereo not drawn) | 1.42%
85 | COc1cc2nc(SCC(N)=O)n(CCC3=CCCCC3)c(=O)c2cc1OC | -2.14%
86 | COc1ccc(-c2csc(Nc3ccccn3)n2)cc1 | 10.5%
87 | O=C1CC(c2ccco2)CC2=C1C=Nc1ccccc1N2 (stereo not drawn) | -3.98%
88 | Cc1nc2sc(C(=O)c3ccccc3)c(N)c2c2c1CCCC2 | 16%
89 | CC(C)C(=O)OCc1cn(-c2ccc(Cl)c(Cl)c2)nn1 | 10.3%
90 | O=C(CSc1nnc(-c2cccs2)n1-c1ccccc1)NCc1ccco1 | -65.9%
